The values below come from article PMC4336329 (PLoS ONE, 2015).

Out of some 310,000 compounds screened, about 2,200 (0.71%) showed an effect of 50% or more. Effects have a minus sign here. The list shows a part of the results.

The target of this test is human ether-à-go-go-related gene (hERG) potassium channel (human, UniProt Q12809). Put plainly: primary screen, population patch clamp on CHO cells stably expressing hERG.
Chain of human ether-à-go-go-related gene (hERG) potassium channel (Q12809 whole entry, looked up): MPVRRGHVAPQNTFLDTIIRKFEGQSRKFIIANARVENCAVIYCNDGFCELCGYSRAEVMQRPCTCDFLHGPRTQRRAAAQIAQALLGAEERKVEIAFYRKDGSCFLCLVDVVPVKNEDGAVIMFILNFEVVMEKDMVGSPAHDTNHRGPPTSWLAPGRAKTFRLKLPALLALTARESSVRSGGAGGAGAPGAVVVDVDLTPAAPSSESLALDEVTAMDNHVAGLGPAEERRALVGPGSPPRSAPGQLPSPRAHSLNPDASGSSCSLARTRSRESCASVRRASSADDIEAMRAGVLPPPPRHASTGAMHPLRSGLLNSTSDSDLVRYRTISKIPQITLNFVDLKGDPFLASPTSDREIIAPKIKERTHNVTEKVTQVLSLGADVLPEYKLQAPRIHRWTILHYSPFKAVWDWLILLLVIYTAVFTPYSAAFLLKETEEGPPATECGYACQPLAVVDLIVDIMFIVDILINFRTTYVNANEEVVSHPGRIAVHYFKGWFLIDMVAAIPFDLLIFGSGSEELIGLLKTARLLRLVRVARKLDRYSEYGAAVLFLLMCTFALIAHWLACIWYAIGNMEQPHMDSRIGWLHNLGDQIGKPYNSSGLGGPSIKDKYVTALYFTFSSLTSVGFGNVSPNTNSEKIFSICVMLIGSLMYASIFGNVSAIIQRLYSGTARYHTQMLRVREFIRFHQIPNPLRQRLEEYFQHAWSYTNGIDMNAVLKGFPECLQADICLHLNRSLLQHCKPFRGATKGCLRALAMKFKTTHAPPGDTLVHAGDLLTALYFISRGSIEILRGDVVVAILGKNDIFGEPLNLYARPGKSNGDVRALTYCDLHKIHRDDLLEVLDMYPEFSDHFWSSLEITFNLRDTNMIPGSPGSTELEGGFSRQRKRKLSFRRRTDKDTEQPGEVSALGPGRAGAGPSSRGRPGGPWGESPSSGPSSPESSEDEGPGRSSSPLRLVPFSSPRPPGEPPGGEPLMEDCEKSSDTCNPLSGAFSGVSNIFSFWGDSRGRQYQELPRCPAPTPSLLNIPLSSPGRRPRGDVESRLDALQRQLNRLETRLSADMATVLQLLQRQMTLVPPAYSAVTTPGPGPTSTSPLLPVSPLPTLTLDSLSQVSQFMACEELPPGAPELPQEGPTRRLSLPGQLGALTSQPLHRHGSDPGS
As for `CC(C)C(NC(=O)c1ccccc1)C(=O)OCc1cc([N+](=O)[O-])cc2c1OCOC2` (centres unmarked), the “hERG current change (%, negative = inhibition) at 1uM” value worked out at 10.2%.
For `Cl.NCC12CC3CC(C1)CC(c1ccc(Br)cc1)(C3)C2` the value was 8.66%; for `COC(=O)C1=C(c2ccc(F)cc2F)C[C@@H]2CC[C@H]1N2C(=O)NCc1ccc(C(F)(F)F)cc1`, 13.4%.
As for `COC(=O)c1nc2cc(C)ccn2c1F`, the “hERG current change (%, negative = inhibition) at 1uM” value was determined as 4.83%.
With `COc1ccc(CCNC(=O)C2CCCN(C(=O)c3ccc(Cl)cc3)C2)cc1` (centres unmarked), the “hERG current change (%, negative = inhibition) at 1uM” value turned out to be 9.59%.
The figure for `COc1ccc(S(=O)(=O)c2ccc(OC)cc2)cc1` is -0.753%.
The figure for `CCCN1C(=O)/C(=C/c2ccco2)SC1=Nc1ccc(OC)cc1` is 14.5%; for `COCc1cc(C)nc(N2CCN(c3ccccc3)CC2)c1C#N` it is 5.99%; for `Cc1ccc(C(=O)C(C)OC(=O)CCS(=O)(=O)c2ccc(C)cc2)cc1` (centres unmarked) it is 12.1%.
Consider `CCCCSc1nc2ccccc2[nH]1`, for which the “hERG current change (%, negative = inhibition) at 1uM” value was 16%.
As to `COc1ccc(C/C(N)=N/OC(=O)c2ccco2)cc1OC`, the “hERG current change (%, negative = inhibition) at 1uM” value turned out to be 15.5%.
Take `CCC(C)C(NC(=O)CCC(=O)OCC(=O)[C@@]1(O)CCC2[C@@H]3CCC4=CC(=O)C=C[C@]4(C)C3[C@@H](O)C[C@@]21C)C(=O)O` (some centres unmarked): the “hERG current change (%, negative = inhibition) at 1uM” value is 16%.
As for `Cc1cc(NC(=O)C(Cl)(Cl)Cl)no1`, the “hERG current change (%, negative = inhibition) at 1uM” value is given as 13.8%.
For `CCOc1ccc(CCNC(=O)COC(=O)c2nccnc2N)cc1OCC` the value was 10.7%; for `CC(=O)c1c(C)[nH]c(C(=O)OCC(=O)NCC(C)C)c1C`, 4.14%; for `O=S(=O)(NCC1CCCO1)c1ccc(S(=O)(=O)N(Cc2ccccn2)C2CC2)cc1` (centres unmarked), 10.1%.
For `CCCc1ccc(C(=O)/C=C/N(C)C)cc1` the value was 1.49%.
`Cc1ccc(CNC(=S)N(C)C)cc1`: the “hERG current change (%, negative = inhibition) at 1uM” value amounted to 10.1%.
Regarding `O=C(CCCC(=O)OCC(Cl)=C(Cl)Cl)Nc1ccccc1`, the “hERG current change (%, negative = inhibition) at 1uM” value was 9.63%.
The figure for `Cc1onc(-c2ccccc2)c1NC(=O)N(Cc1ccccc1)C(C)C` is 13.3%; for `O=C(O)c1ccc(/C=N/NC(=O)c2ccc(CN3c4cccc5cccc(c45)S3(=O)=O)cc2)cc1` it is 11.7%; for `O=C(CSc1nnnn1C1CCCCC1)N1CCN(C(=O)c2ccco2)CC1` it is 5.07%.
For `Cc1cccc(NC(=O)C2CCCN(S(=O)(=O)c3c(C)nn(C)c3C)C2)n1` (centres unmarked) the value was 10.9%; for `Cc1ccc(C)c(N(C)S(=O)(=O)c2ccc3c(c2)oc(=O)n3C)c1`, 12.1%.
The figure for `CC1CCN(c2ccccc2NC(=O)c2ccc(Br)o2)CC1` is -3.61%; for `Cc1ccc(OCCNC(=O)c2ccccc2OCc2c(C)noc2C)cc1` it is 14.3%.
Regarding `COc1cccc(CNc2nc3ccccc3n2C)c1O`, the “hERG current change (%, negative = inhibition) at 1uM” value came out at 11.7%.
The figure for `COc1ccc(C2NC(=O)N(CCCC(=O)O)C(C)=C2C(=O)OCc2ccccc2)cc1` (centres unmarked) is 9.48%.
With `O=C(N/N=C/C1CC2CCC1C2)c1c[nH]c2ccccc12` (centres unmarked), the “hERG current change (%, negative = inhibition) at 1uM” value was determined as 5.05%.
The figure for `C/C(=N\NC(=O)c1ccccc1O)c1c(O)n(Cc2ccccc2)c(=O)[nH]c1=O` is 9.52%; for `CCCC(=O)c1ccc(N2CCN(C(=O)OCC)CC2)c(F)c1` it is 9.78%.
The figure for `O=C1CN(C(=O)/C=C/c2ccc(Cl)cc2)c2ccccc2N1` is -18.7%; for `COc1ccccc1OCCOCCOc1c(C)cc(C)cc1Br` it is 5.34%.
For `Cc1ccc(-c2ccc(/C=C3\C(=O)ON=C3c3ccccc3)o2)c([N+](=O)[O-])c1` the value was -10.8%; for `Cc1nc2ccccc2nc1OCC(=O)Nc1ccccc1`, 14.5%; for `Cc1ccc(N2CC(C(=O)Nc3cccnc3)CC2=O)cc1C` (centres unmarked), 11.9%.
Turning to `O=[N+]([O-])c1cc(S(=O)(=O)Nc2ccccc2)ccc1NCc1ccccc1`, the “hERG current change (%, negative = inhibition) at 1uM” value stood at 13.3%.
For the molecule `CN(C)C(=S)SCC(=O)Nc1ccc(Cl)cc1Cl`, the “hERG current change (%, negative = inhibition) at 1uM” value is recorded as -0.0331%.
The figure for `Cc1cccc(-n2ncc3c(N4CCc5ccccc54)ncnc32)c1` is 11.9%; for `CCCOc1cccc(C(=O)Nc2cc(NC(=O)c3ccco3)ccc2OC)c1` it is 13.9%.
For `CCOc1ccccc1NC(=O)C(=O)N/N=C/c1cc(Br)ccc1O` the value was 16.2%; for `C=CCc1cc(C=O)cc(OC)c1OCc1ccc(Cl)cc1`, 3.5%.
The figure for `CCS(=O)(=O)NC(C)C(c1cccs1)N1CCN(c2ccc(OC)cc2)CC1` (centres unmarked) is 0.652%.
Regarding `OCCCn1c(C2CCCN2c2nc(-c3ccc(F)cc3)cs2)nc2cc(Cl)c(N3CCCCC3)cc21` (centres unmarked), the “hERG current change (%, negative = inhibition) at 1uM” value came out at 11.7%.
